# Measurements as given in ChEMBL document CHEMBL5606460, “ASAP - DENV-2 NS2B-NS3 protease fluorescence single point” (2024).
# Among all 2,000 compounds or so, about 110 (5.5%) showed an effect of 50% or more. The list shows a part of the results.
# Target: Genome polyprotein (dengue virus type 2) (UniProt P29990)
# [1] = Thailand/16681/1984, Concentration 25.0 uM, Number of replicates 1.0
structure (smiles),measurement,setting,value
O=C(c1cc(Cl)ccc1NS(=O)(=O)c1ccc(Oc2ccccc2Cl)cc1)N1CCC[C@@H]1CO,inhibition,"Thailand/16681/1984, Concentration 49.5 uM, Number of replicates 2.0, Standard deviation 0.383564644131335 %",17.2%
same,inhibition,"Thailand/16681/1984, Concentration 99.01 uM, Number of replicates 2.0, Standard deviation 0.18466388793957156 %",85.5%
same,inhibition,"Thailand/16681/1984, Concentration 198.0 uM, Number of replicates 2.0, Standard deviation 0.022248141217142654 %",93.6%
NCc1ncc(C(=O)Nc2ccccc2N2CCC(CO)CC2)c(C(F)(F)F)n1,inhibition,"Thailand/16681/1984, Concentration 49.5 uM, Number of replicates 2.0, Standard deviation 1.1543273279104322 %",2.58%
same,inhibition,"Thailand/16681/1984, Concentration 99.01 uM, Number of replicates 2.0, Standard deviation 0.2964400275887672 %",4.99%
same,inhibition,"Thailand/16681/1984, Concentration 198.0 uM, Number of replicates 2.0, Standard deviation 0.14686490832106133 %",6.91%
Cc1cnccc1NC(=O)c1cc(C2CC2)n(C)c1C,inhibition,"Thailand/16681/1984, Concentration 49.5 uM, Number of replicates 2.0, Standard deviation 2.6599627573534175 %",-1.31%
same,inhibition,"Thailand/16681/1984, Concentration 99.01 uM, Number of replicates 2.0, Standard deviation 2.178967369959994 %",0.05%
same,inhibition,"Thailand/16681/1984, Concentration 198.0 uM, Number of replicates 2.0, Standard deviation 3.247202341941587 %",3.32%
O=Cc1ccc(N2CCC(C(=O)N3CCN(c4ccc(F)cc4F)CC3)CC2)cc1,inhibition,[1],11.4%
CC(C)N(C[C@H](O)COc1ccc(CC(N)=O)cc1)C(=O)C1CCN(c2ccc(C=O)cc2)CC1,inhibition,[1],13.4%
O=Cc1ccc(N2CCC(C(=O)N(Cc3cnn(-c4ccccc4)c3)C3CC3)CC2)cc1,inhibition,[1],14.3%
O=Cc1ccc(N2CCC(C(=O)NC(c3ccccc3)c3ccccc3)CC2)cc1,inhibition,[1],-0.6%
O=Cc1ccc(N2CCC(C(=O)NCc3cc(F)c(F)cc3F)CC2)cc1,inhibition,[1],14.2%
O=Cc1ccc(N2CCC(C(=O)NCc3ccc(C(=O)N4CCCC4)cc3)CC2)cc1,inhibition,[1],15%
O=Cc1ccc(N2CCC(C(=O)N3C[C@@H]4C[C@H]3CN4Cc3ccccc3)CC2)cc1,inhibition,[1],13.2%
Cn1ccnc1[C@H]1CCCN(c2nc(N)nc3[nH]ccc23)C1,inhibition,"Thailand/16681/1984, Concentration 49.5 uM, Number of replicates 2.0, Standard deviation 1.3833087982807808 %",-1.02%
same,inhibition,"Thailand/16681/1984, Concentration 99.01 uM, Number of replicates 2.0, Standard deviation 2.5265541576501263 %",-0.984%
same,inhibition,"Thailand/16681/1984, Concentration 198.0 uM, Number of replicates 2.0, Standard deviation 1.980296651267403 %",-0.547%
Cc1ccc(NC(=O)C2CCN(c3ccc(C=O)cc3)CC2)c(Br)c1,inhibition,[1],15.3%
O=Cc1ccc(N2CCC(C(=O)Nc3c(F)cc(Br)cc3F)CC2)cc1,inhibition,[1],11.1%
COC(=O)c1c[nH]c(-c2ccccc2C(=O)Nc2cnn(C)c2)c1,inhibition,"Thailand/16681/1984, Concentration 49.5 uM, Number of replicates 2.0, Standard deviation 4.6959836114984075 %",-3.99%
same,inhibition,"Thailand/16681/1984, Concentration 99.01 uM, Number of replicates 2.0, Standard deviation 3.634509710514387 %",-4.57%
same,inhibition,"Thailand/16681/1984, Concentration 198.0 uM, Number of replicates 2.0, Standard deviation 4.5675250537856 %",-3.67%
C[C@@H](NC(=O)c1cc(Cl)ccc1NS(=O)(=O)c1ccc(Oc2ccccc2Cl)cc1)[C@H]1CCCO1,inhibition,"Thailand/16681/1984, Concentration 49.5 uM, Number of replicates 2.0, Standard deviation 0.29635236214386457 %",82.5%
same,inhibition,"Thailand/16681/1984, Concentration 99.01 uM, Number of replicates 2.0, Standard deviation 0.052507555399236044 %",84.4%
same,inhibition,"Thailand/16681/1984, Concentration 198.0 uM, Number of replicates 2.0, Standard deviation 0.13838732262418607 %",80.7%
N[C@@H]1CC[C@H](NC(=O)[C@@H](NC(=O)OCc2ccccc2)c2ccc(OCc3ccccc3)cc2)C1,inhibition,"Thailand/16681/1984, Concentration 49.5 uM, Number of replicates 2.0, Standard deviation 1.2434035121264484 %",-8.26%
same,inhibition,"Thailand/16681/1984, Concentration 99.01 uM, Number of replicates 2.0, Standard deviation 0.8566380677318021 %",-6.19%
same,inhibition,"Thailand/16681/1984, Concentration 198.0 uM, Number of replicates 2.0, Standard deviation 2.0731918457206886 %",3.51%
CN1CCN(c2ccc(CCNS(=O)(=O)c3ccc(F)cc3)cc2)CC1,inhibition,"Thailand/16681/1984, Concentration 49.5 uM, Number of replicates 2.0, Standard deviation 0.7996821653533323 %",-1.41%
same,inhibition,"Thailand/16681/1984, Concentration 99.01 uM, Number of replicates 2.0, Standard deviation 0.7245815652705206 %",-0.422%
same,inhibition,"Thailand/16681/1984, Concentration 198.0 uM, Number of replicates 2.0, Standard deviation 1.3286313097517835 %",0.775%
CN(Cc1ccccc1)Cc1cccc(NC(=O)c2ccc3c(c2)B(O)OC3)c1,inhibition,"Thailand/16681/1984, Concentration 49.5 uM, Number of replicates 2.0, Standard deviation 2.1199690313026864 %",0.247%
same,inhibition,"Thailand/16681/1984, Concentration 99.01 uM, Number of replicates 2.0, Standard deviation 1.45611694434521 %",-1.12%
same,inhibition,"Thailand/16681/1984, Concentration 198.0 uM, Number of replicates 2.0, Standard deviation 3.0656800379431695 %",1.49%
Cc1cc(CO)c2cccc(NCc3ccc(S(N)(=O)=O)cc3)c2n1,inhibition,"Thailand/16681/1984, Concentration 49.95 uM, Number of replicates 2.0, Standard deviation 1.2377055953825635 %",8.26%
same,inhibition,"Thailand/16681/1984, Concentration 99.9 uM, Number of replicates 2.0, Standard deviation 1.691711110367126 %",17.2%
CSCC[C@H](NC(=O)OC(C)(C)C)C(=O)N1CCC[C@H]1C(=O)Nc1cccc(CN)c1,inhibition,"Thailand/16681/1984, Concentration 49.5 uM, Number of replicates 2.0, Standard deviation 1.5173934729468572 %",-0.275%
same,inhibition,"Thailand/16681/1984, Concentration 99.01 uM, Number of replicates 2.0, Standard deviation 1.5126097634940223 %",0.43%
same,inhibition,"Thailand/16681/1984, Concentration 198.0 uM, Number of replicates 2.0, Standard deviation 2.114878998554874 %",1.09%
Cc1cc(CO)c2cccc(NC(=O)C3CCC(CN)CC3)c2n1 (configuration not stated),inhibition,"Thailand/16681/1984, Concentration 49.95 uM, Number of replicates 2.0, Standard deviation 1.7984525560806044 %",96%
same,inhibition,"Thailand/16681/1984, Concentration 99.9 uM, Number of replicates 2.0, Standard deviation 0.012834221133749364 %",98.2%
CC(C)(C)OC(=O)N1CCOC[C@H]1CNCc1nnc2ccccn12,inhibition,"Thailand/16681/1984, Concentration 49.5 uM, Number of replicates 2.0, Standard deviation 3.6636813935617547 %",-2.66%
same,inhibition,"Thailand/16681/1984, Concentration 99.01 uM, Number of replicates 2.0, Standard deviation 2.060655687099608 %",-2.48%
same,inhibition,"Thailand/16681/1984, Concentration 198.0 uM, Number of replicates 2.0, Standard deviation 3.020799081222525 %",-1.72%
O=Cc1ccc(N2CCC(C(=O)Nc3ccc(C(F)(F)F)cc3[N+](=O)[O-])CC2)cc1,inhibition,[1],13.7%
O=Cc1ccc(N2CCC(C(=O)Nc3ccc(-n4cccn4)cc3)CC2)cc1,inhibition,[1],12.6%
O=Cc1ccc(N2CCC(C(=O)NCc3ccc(C(F)(F)F)nc3)CC2)cc1,inhibition,[1],14.9%
O=C(N[C@H]1CCNC1=O)c1cc(Cl)ccc1NS(=O)(=O)c1ccc(Oc2ccccc2Cl)cc1,inhibition,"Thailand/16681/1984, Concentration 49.5 uM, Number of replicates 2.0, Standard deviation 0.36576586141779044 %",30.3%
same,inhibition,"Thailand/16681/1984, Concentration 99.01 uM, Number of replicates 2.0, Standard deviation 0.2318278972972024 %",51.8%
same,inhibition,"Thailand/16681/1984, Concentration 198.0 uM, Number of replicates 2.0, Standard deviation 0.7755829345495912 %",18.9%
O=Cc1ccc(N2CCC(C(=O)NCc3nc(-c4ccccn4)no3)CC2)cc1,inhibition,[1],14.7%
O=C(NCc1ccc2[nH]cnc2c1)[C@@]1(c2ccc(F)cc2)CCCNC1,inhibition,"Thailand/16681/1984, Concentration 50.0 uM, Number of replicates 2.0, Standard deviation 0.8036935759540536 %",1.49%
same,inhibition,"Thailand/16681/1984, Concentration 100.0 uM, Number of replicates 2.0, Standard deviation 0.5451893366540629 %",0.924%
same,inhibition,"Thailand/16681/1984, Concentration 200.0 uM, Number of replicates 2.0, Standard deviation 0.16529100472784208 %",1.69%
Cc1cc(CO)c2cccc(Cc3cccc(NC(=O)c4cccc(Cn5cncn5)c4)c3)c2n1,inhibition,"Thailand/16681/1984, Concentration 49.95 uM, Number of replicates 2.0, Standard deviation 0.03445572300723204 %",-2.36%
same,inhibition,"Thailand/16681/1984, Concentration 99.9 uM, Number of replicates 2.0, Standard deviation 1.2505418184916173 %",1.37%
CNC(=O)C1(C)CCN(C(=O)C2CCN(c3ccc(C=O)cc3)CC2)CC1,inhibition,[1],13.1%
NCc1cccc(NC(=O)c2cccc(NC(=O)OCc3ccccc3)n2)c1,inhibition,"Thailand/16681/1984, Concentration 49.5 uM, Number of replicates 2.0, Standard deviation 2.6942952851224518 %",-4.63%
same,inhibition,"Thailand/16681/1984, Concentration 99.01 uM, Number of replicates 2.0, Standard deviation 2.660477496814281 %",-4.61%
same,inhibition,"Thailand/16681/1984, Concentration 198.0 uM, Number of replicates 2.0, Standard deviation 1.4247947815728461 %",-5.3%
CC(C)c1ccc2c(c1)CC[C@H]1[C@](C)(CNC(=O)C3CCN(c4ccc(C=O)cc4)CC3)CCC[C@]21C,inhibition,[1],13.6%
O=Cc1ccc(N2CCC(C(=O)NCCc3ccc(Cl)cc3Cl)CC2)cc1,inhibition,[1],9.31%
Cn1cc(CN)c(NS(=O)(=O)c2ccc(Oc3ccccc3)cc2)n1,inhibition,"Thailand/16681/1984, Concentration 49.5 uM, Number of replicates 2.0, Standard deviation 0.6848191905191987 %",-3.59%
same,inhibition,"Thailand/16681/1984, Concentration 99.01 uM, Number of replicates 2.0, Standard deviation 2.0059841439104287 %",-3.49%
same,inhibition,"Thailand/16681/1984, Concentration 198.0 uM, Number of replicates 2.0, Standard deviation 0.9540026825885767 %",-3.42%
C[C@@H]1CN(C2CCN(C(=O)C3CCN(c4ccc(C=O)cc4)CC3)CC2)C[C@H](C)O1,inhibition,[1],12%
NCc1cccc(NC(=O)[C@]2(NC(=O)OCc3ccccc3)CCOC2)c1,inhibition,"Thailand/16681/1984, Concentration 49.5 uM, Number of replicates 2.0, Standard deviation 1.426129993733671 %",-5.37%
same,inhibition,"Thailand/16681/1984, Concentration 99.01 uM, Number of replicates 2.0, Standard deviation 1.4283546729854701 %",-5.77%
same,inhibition,"Thailand/16681/1984, Concentration 198.0 uM, Number of replicates 2.0, Standard deviation 1.6552894897579518 %",-5.76%
O=Cc1ccc(N2CCC(C(=O)N3CCN(C(=O)c4ccco4)CC3)CC2)cc1,inhibition,[1],13.3%
CN(Cc1cccc2ccccc12)C(=O)C1CCN(c2ccc(C=O)cc2)CC1,inhibition,[1],11.3%
C[C@@H](NC(=O)c1cc(Cl)ccc1NS(=O)(=O)c1ccc(Oc2ccccc2Cl)cc1)C1COC1,inhibition,"Thailand/16681/1984, Concentration 49.5 uM, Number of replicates 2.0, Standard deviation 0.4885797549298071 %",59.2%
same,inhibition,"Thailand/16681/1984, Concentration 99.01 uM, Number of replicates 2.0, Standard deviation 0.152624190876378 %",68.4%
same,inhibition,"Thailand/16681/1984, Concentration 198.0 uM, Number of replicates 2.0, Standard deviation 0.02447349481851786 %",59.2%
O=C1COc2cccc(CN3CCC(c4c[nH]c5cccnc45)CC3)c2N1,inhibition,"Thailand/16681/1984, Concentration 49.5 uM, Number of replicates 2.0, Standard deviation 3.2596996411683405 %",0.091%
same,inhibition,"Thailand/16681/1984, Concentration 99.01 uM, Number of replicates 2.0, Standard deviation 3.614501421414507 %",1.45%
same,inhibition,"Thailand/16681/1984, Concentration 198.0 uM, Number of replicates 2.0, Standard deviation 3.7781576131088843 %",2.78%
O=Cc1ccc(N2CCC(C(=O)Nc3cccc(-c4ccccc4)c3)CC2)cc1,inhibition,[1],9.81%
N#CCCN(Cc1cccnc1)C(=O)C1CCN(c2ccc(C=O)cc2)CC1,inhibition,[1],17.5%
N#Cc1ccc(Cl)c(NC(=O)C2CCN(c3ccc(C=O)cc3)CC2)c1,inhibition,[1],12.7%
